# According to PubChem BioAssay AID1460 (National Center for Advancing Translational Sciences (NCATS), 2008):
# Where “and” joins values, the source holds several entries; their conditions need not be identical. Identical values can stand only once. Hit rate of the full screen: of about 270,000 compounds, about 5,800 (2.1%) were called active. The inconclusive results got no clear call from the source; some entries with a clear call stand among them for comparison. Calls come from the whole dose curve; as a rule, active = well fitted inhibition curve with a large enough effect; inconclusive = small, poorly fitted or top-dose-only effect; inactive = flat fitted curve, though single readings scatter. A potency beside an inconclusive call is a rough fit, not a confirmed value.
# Target: Microtubule-associated protein tau (Homo sapiens) (UniProt P10636)
# Assay: qHTS for Inhibitors of Tau Fibril Formation, Thioflavin T Binding; note: nearly all actives have a fitted effect of over 55% in size
# Conditions: recombinant tau K18 P301L (four-repeat tau fragment), heparin-induced fibrillization, ThT fluorescence; series mostly up to 57.4 µM
# Outline: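 In this qHTS, human K18 P301L tau is incubated with compound and heparin for 6 hr at 37 C, and Thioflavin T fluorescence then reports fibril load.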
# % is set by controls: 0 for no effect and ±100 for the full control effect; potency is the fitted concentration of half-maximal effect; tags give direction and shape of the fitted curve.
# Sequence of UniProt P10636 (P10636 whole entry, looked up): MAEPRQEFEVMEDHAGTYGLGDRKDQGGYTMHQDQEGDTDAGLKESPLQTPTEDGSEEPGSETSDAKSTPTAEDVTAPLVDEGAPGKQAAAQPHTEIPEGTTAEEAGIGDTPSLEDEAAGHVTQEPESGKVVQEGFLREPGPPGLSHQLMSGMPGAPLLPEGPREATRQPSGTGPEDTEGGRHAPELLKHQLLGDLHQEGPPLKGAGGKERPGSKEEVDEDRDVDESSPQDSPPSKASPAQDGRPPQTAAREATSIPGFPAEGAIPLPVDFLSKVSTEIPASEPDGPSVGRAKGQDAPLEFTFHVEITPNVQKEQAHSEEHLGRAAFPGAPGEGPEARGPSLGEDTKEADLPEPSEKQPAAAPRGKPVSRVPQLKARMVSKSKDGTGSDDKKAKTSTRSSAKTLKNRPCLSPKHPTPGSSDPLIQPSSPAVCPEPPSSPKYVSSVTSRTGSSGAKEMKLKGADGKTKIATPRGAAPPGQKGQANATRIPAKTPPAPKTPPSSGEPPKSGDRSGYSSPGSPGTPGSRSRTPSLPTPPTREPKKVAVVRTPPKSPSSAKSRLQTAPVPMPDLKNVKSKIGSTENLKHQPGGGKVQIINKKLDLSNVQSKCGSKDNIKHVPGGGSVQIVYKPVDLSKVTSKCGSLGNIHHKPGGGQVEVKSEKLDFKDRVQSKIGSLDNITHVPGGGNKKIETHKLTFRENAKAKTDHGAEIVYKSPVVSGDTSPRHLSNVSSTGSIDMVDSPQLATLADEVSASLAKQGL
Structure (SMILES),Potency,"activity, negative = inhibition"
COc1ccc2c(CCNC(=O)Nc3ccccc3)c[nH]c2c1,"inconclusive: 22.4 µM [inhibitor, partial curve]",
Cc1cc(=O)n2nc(N3CCC(C(=O)NCc4cccnc4)CC3)sc2n1,inactive,
CC(C)CCCCCCNC(=S)Nc1ccc(S(=O)(=O)N2CCOCC2)cc1,inactive,
CN(C)c1ccc(/C=C/c2ccncc2)cc1,"inconclusive: 10 µM [inhibitor, partial curve]",
COC(=O)C1=C(CN2CCCc3ccccc32)NC(=O)NC1c1ccc(F)cc1 (centres undefined),"inconclusive: 25.1 µM [inhibitor, partial curve, poor fit]",
COC/C=C/C1=CC2=CC(=O)C(C)(OC(=O)c3cnc4ccccc4n3)C(=O)C2=CN1CCCOC(C)C (centres undefined),"inconclusive: 8.91 µM [inhibitor, partial curve] and inconclusive: 3.55 µM [inhibitor, single point]",
COC(=O)c1[nH]c2cc(C)ccc2c1NC(=O)CN1CCN(c2ccccc2OC)CC1,"inconclusive: 15.8 µM [inhibitor, partial curve]",
C=CCN(CC=C)S(=O)(=O)c1ccc2nsnc2c1,inactive,
Cc1ccccc1C(=O)Nc1sc(C)c(C)c1C(=O)c1ccccc1,inactive,
O=C(C(c1ccccc1)c1ccccc1)N1CC[C@@]2(O)CCCC[C@H]2C1,inactive,
Cc1noc(C)c1S(=O)(=O)Nc1ccccc1Oc1ccccc1,inactive,
CCOC(=O)/C(=N\Nc1ccccc1)P(=O)(c1ccccc1)c1ccccc1,inactive,
Cc1ccc(Nc2nc(N)nc(CSC(=S)N3CCN(c4ccccc4)CC3)n2)cc1,"inconclusive: 6.31 µM [inhibitor, full curve]",
Cc1cc(C)c2c(=O)cc(C(=O)Nc3sc4c(c3C#N)CCCC4)oc2c1,"inconclusive: 3.16 µM [inhibitor, full curve]",
CC(=O)Oc1cccc(N2C(=O)C3C4C=CC(C4)C3C2=O)c1 (centres undefined),inactive,
CCN(Cc1ccncc1)Cc1cn(C)nc1-c1ccc(Oc2ccccc2)cc1,"inconclusive: 31.6 µM [inhibitor, single point]",
CC(/C=N\NC(=O)Cn1cncn1)=C/c1ccc(C(C)C)cc1,"inconclusive: 31.6 µM [inhibitor, single point]",
NS(=O)(=O)c1ccc(N2CCCCCC2)c([N+](=O)[O-])c1,"inconclusive: 28.2 µM [inhibitor, single point]",
COc1cccc(-c2csc(N3CCN(C(=S)Nc4cccc(Cl)c4)CC3)n2)c1,"inconclusive: 31.6 µM [inhibitor, partial curve]",
O=C(N/N=C/c1ccc(OC2CSC2)cc1)c1ccc(CN2CCOCC2)cc1,"inconclusive: 10 µM [inhibitor, partial curve]",
CCOC(=O)c1ccc(NC(=S)NN)cc1,"inconclusive: 35.5 µM [inhibitor, single point]",
CCc1nn2c(=O)cc(COC(=O)c3cccc(NC(=O)c4ccccc4C)c3)nc2s1,inactive,
COc1cc2c(cc1OC)C(CSc1ccccc1C(=O)O)=NC(C)(C)C2,"inconclusive: 28.2 µM [inhibitor, partial curve]",

Structure (SMILES),Potency,"activity, negative = inhibition"
CC(=O)Nc1ccc(C(=O)OCC(=O)Nc2ccc(N3CCOCC3)cc2)cc1,inactive,
CC(/C=N/n1c(-c2n[nH]c3c2CCC3)n[nH]c1=S)=C\c1ccco1,"inconclusive: 2 µM [inhibitor, full curve, poor fit]",
CCc1ccccc1NC(=O)Cn1cc(C(=O)c2ccc(Cl)cc2)c(=O)c2ccc(C)nc21,"inconclusive: 31.6 µM [inhibitor, single point]",
COc1ccc(OC(C)C(=O)Nc2ccc(F)cc2F)cc1 (centres undefined),inactive,
O=C(Nc1ccc(Cl)c([N+](=O)[O-])c1)c1ccc(NCCCN2CCOCC2)c([N+](=O)[O-])c1,active: 2.51 µM,
COc1ccc(-c2cc(CNC(=O)CN3CCN(C)CC3)on2)cc1,inactive,
C/C(=N\OCC(=O)N/N=C/c1ccccc1O)c1cccs1,"inconclusive: 20 µM [inhibitor, partial curve]",
CCN(CC)c1ccc(NC(=O)c2ccccc2F)cc1,"inconclusive: 28.2 µM [inhibitor, partial curve]",
COc1ccc([C@H]2C(C#N)=C([S-])N[C@](C)(O)[C@@H]2[n+]2ccccc2)cc1,"inconclusive: 15.8 µM [inhibitor, partial curve]",
CCN(CC)c1ccc(/C=N/N2CCN(Cc3ccccc3)CC2)c(O)c1,"inconclusive: 15.8 µM [inhibitor, partial curve]",
Cc1ccc(CNS(=O)(=O)c2cc(C(=O)Nc3ccc(C(C)C)cc3)ccc2F)cc1,inactive,
O=[N+]([O-])c1cccc(/C=N\N2CCN(Cc3ccccc3Cl)CC2)c1,"inconclusive: 28.2 µM [inhibitor, partial curve]",
Cc1ccc(-c2nc(C#N)c(NCc3cccc4c3OCO4)o2)cc1,"inconclusive: 28.2 µM [inhibitor, partial curve, poor fit]",
O=C(Nc1ccc(Cl)c(Cl)c1)N1CC=C(c2ccccc2)CC1,"inconclusive: 0.158 µM [inhibitor, full curve, poor fit]",
CCOC(=O)c1sc2ncn(C(C)C(=O)OCC)c(=O)c2c1C (centres undefined),inactive,
CCOC(=O)/C=C/C(=O)OCC(=O)Nc1ccc(C)cc1,"inconclusive: 10 µM [inhibitor, partial curve]",
O=C(/C=C/c1ccc([N+](=O)[O-])cc1)Nc1cccnc1,"inconclusive: 11.2 µM [inhibitor, partial curve]",
CCc1ccccc1NC(=S)NNC(=O)c1ccccc1Cl,inactive,
CCOc1cc(/C=C2\SC(=O)N(c3ccc(O)cc3)C2=O)ccc1O,"inconclusive: 15.8 µM [inhibitor, partial curve]",
Cc1cccn2c(=O)c3cc(C(N)=S)c(=N)n(CCCN4CCOCC4)c3nc12,"inconclusive: 20 µM [inhibitor, single point]",
COCCn1c(N)c(S(=O)(=O)c2cccs2)c2nc3ccccc3nc21,inactive,
O=C1C[C@@H](O)[C@@H](O)[C@H]2[C@@H]3C(=O)N(Cc4ccccc4)C(=O)[C@@H]3CC[C@H]12,,inactive: 0.337% [at 11.5 µM] and inactive: -3.94% [at 11.5 µM]
Cc1ccc(CNc2nc3c(c(=O)n(C)c(=O)n3C)n2Cc2ccc(Cl)cc2)cc1,"inconclusive: 17.8 µM [inhibitor, partial curve, poor fit]",

Structure (SMILES),Potency,"activity, negative = inhibition"
CCc1ccc2c(O)c3c(cc2c1C(=O)OC)C(=O)c1c(O)ccc(O)c1C3=O,active: 3.16 µM,
CN1CC(O)C2=CC(=O)C(=O)C=C21 (centres undefined),active: 3.16 µM,
CCCSC1=C(C#N)C(c2cccs2)C(C(=O)Nc2ccccc2)=C(C)N1 (centres undefined),inactive,
COc1ccc(-c2cc(C(=O)Nc3cccc(C(C)=O)c3)no2)cc1OC,inactive,
C/C(=N\NC(=O)c1c(Br)c(C)nn1C)c1cccc(NC(=O)c2ccccc2C)c1,"inconclusive: 15.8 µM [inhibitor, partial curve]",
CCCc1ccc(C#N)c(SC2CC(=O)N(c3ccc(OC)cc3)C2=O)n1 (centres undefined),"inconclusive: 14.1 µM [inhibitor, partial curve]",
CN=c1scc(C)n1/N=C/c1ccc(O)cc1O,active: 15.8 µM,
Cc1ccc(-n2nc(C)c3c2OC(N)=C(C#N)C3c2ccco2)cc1 (centres undefined),active: 25.1 µM,
CSC1=NC(C)(C)C=C(/C=C/c2c(Cl)cccc2Cl)N1,"inconclusive: 28.2 µM [inhibitor, single point]",
Cc1ccc(CN2C(=O)CCC2C(=O)NCCN(CC(C)C)CC(C)C)cc1 (centres undefined),"inconclusive: 15.8 µM [inhibitor, partial curve]",
Cc1cccc(N2CCN(C(=O)COCc3cc(-c4ccc5c(c4)OCO5)on3)CC2)c1C,"inconclusive: 11.2 µM [inhibitor, partial curve]",
CCOC(=O)c1c(/N=C/c2cc(OC)cc([N+](=O)[O-])c2O)sc(C)c1C,active: 8.91 µM,
CCOc1ccc(CN(C(=O)c2oc3ccccc3c2C)C2CCS(=O)(=O)C2)cc1 (centres undefined),"inconclusive: 39.8 µM [inhibitor, single point]",
COC(=O)c1c(NC(=O)/C=C/c2ccc3c(c2)OCO3)sc(C)c1C,"inconclusive: 5.01 µM [inhibitor, partial curve]",
N#CC1=C(SCc2ccccc2)NC(=O)CC1c1ccco1 (centres undefined),"inconclusive: 31.6 µM [inhibitor, single point]",
Cc1ccc(C)c2c3c([nH]c12)-c1nonc1CC3,"inconclusive: 14.1 µM [inhibitor, partial curve]",
CCOc1ccc(NC(=O)N2CCC(CN3CCC(C)CC3)CC2)cc1,inactive,
CCc1ccc(OCCNC(=O)c2cccs2)cc1,inactive,
N#CC(C(=O)NC1CC1)c1nc2ccccc2nc1N1CCN(C/C=C/c2ccccc2)CC1 (centres undefined),"inconclusive: 7.94 µM [inhibitor, partial curve]",
CC(=O)Oc1c(Cl)c(N2CCOCC2)c(OC(C)=O)c2ccccc12,"inconclusive: 31.6 µM [inhibitor, partial curve]",
CCC1(C)Cc2c(C#N)c(N)sc(=S)c2CO1 (centres undefined),active: 25.1 µM,
COC(=O)CCC(=O)OC1(C)C(=O)C=C2C=C(C3CC3)N(C3CCCCC3)C=C2C1=O (centres undefined),"inconclusive: 12.6 µM [inhibitor, partial curve]",
COc1cccc(-c2ccnc3c(-c4ccccc4)c(C)nn23)c1,"inconclusive: 12.6 µM [inhibitor, partial curve]",
